Measured values published in the supplement of paper PMC4604168 (melanoma cell lines).
Some of the results follow. Many values rest on one well or one pass, so single values are uncertain.

Assays:
Test in all cases: cell count relative to DMSO control; melanoma cells; higher = more viable cells
Conditions in all cases: library dose: standard library concentration; 72 h
[1] = system: A101D
[2] = system: A2058
[3] = system: A375
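Also: cells treated in 1,536-well plates, then fixed and DAPI-stained, with nuclei counted from automated high-throughput microscope images.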

SMILES	cell count [1] [%]	cell count [2] [%]	cell count [3] [%]
O=C(/C=C/c1cccnc1)NCCCCC1CCN(C(=O)c2ccccc2)CC1 + COc1ccc(C2=N[C@@H](c3ccc(Cl)cc3)[C@@H](c3ccc(Cl)cc3)N2C(=O)N2CCNC(=O)C2)c(OC(C)C)c1 [Nutlin-3] (first compound 0.05 µM, partner dose 0.5 µM)	78.1	113	113
Cc1ccc(Nc2nccc(N(C)c3ccc4c(C)n(C)nc4c3)n2)cc1S(N)(=O)=O [Pazopanib] + NC(=O)c1ccc(N(C(N)=O)c2c(F)cccc2F)nc1-c1ccc(F)cc1F [VX702] (first compound 2 µM, partner dose 2 µM)	123	108	90.1
Cc1ccc(Nc2nccc(N(C)c3ccc4c(C)n(C)nc4c3)n2)cc1S(N)(=O)=O [Pazopanib] + CS(=O)(=O)c1ccc(C(=O)Nc2ccc(Cl)c(-c3ccccn3)c2)c(Cl)c1 [vismodegib] (first compound 2 µM, partner dose 5 µM)	107	115	102
O=C(/C=C/c1cccnc1)NCCCCC1CCN(C(=O)c2ccccc2)CC1 + OCCn1cc(-c2cnc3nnn(Cc4ccc5ncccc5c4)c3n2)cn1 [PF04217903] (first compound 0.05 µM, partner dose 5 µM)	93.4	109	128
CC1(C)CCC(c2ccc(Cl)cc2)=C(CN2CCN(c3ccc(C(=O)NS(=O)(=O)c4ccc(N[C@H](CCN5CCOCC5)CSc5ccccc5)c(S(=O)(=O)C(F)(F)F)c4)cc3)CC2)C1 + COc1ccc(Cl)c(Nc2nc3ccccc3nc2NS(=O)(=O)c2cccc(NC(=O)C(C)(C)N)c2)c1 [XL147] (first compound 2 µM, partner dose 4 µM)	49.7	116	89.8
O=C(/C=C/c1cccnc1)NCCCCC1CCN(C(=O)c2ccccc2)CC1 + C[C@]1(O)C[C@@H](c2nc(-c3ccc4ccc(-c5ccccc5)nc4c3)c3c(N)nccn32)C1 [OSI906] (first compound 0.05 µM, partner dose 2 µM)	115	106	94.7
Cc1ccc(Nc2nccc(N(C)c3ccc4c(C)n(C)nc4c3)n2)cc1S(N)(=O)=O [Pazopanib] + CNC(=O)c1cc(Oc2ccc(NC(=O)Nc3ccc(Cl)c(C(F)(F)F)c3)cc2)ccn1 [sorafenib] (first compound 2 µM, partner dose 2 µM)	94.7	100	121
O=C(/C=C/c1cccnc1)NCCCCC1CCN(C(=O)c2ccccc2)CC1 + C[C@@H]1CCN(C(=O)CC#N)C[C@@H]1N(C)c1ncnc2[nH]ccc12 [CP690550] (first compound 0.05 µM, partner dose 5 µM)	67	89.9	106
O=C(/C=C/c1cccnc1)NCCCCC1CCN(C(=O)c2ccccc2)CC1 + Clc1ccc(Nc2nnc(Cc3ccncc3)c3ccccc23)cc1 [vatalanib] (first compound 0.05 µM, partner dose 10 µM)	85.4	83.6	105
Cc1ccc(Nc2nccc(N(C)c3ccc4c(C)n(C)nc4c3)n2)cc1S(N)(=O)=O [Pazopanib] + C[C@@H](Oc1cc(-c2cnn(C3CCNCC3)c2)cnc1N)c1c(Cl)ccc(F)c1Cl [Crizotinib] (first compound 2 µM, partner dose 1 µM)	89.7	73.2	96.9
Cc1ccc(Nc2nccc(N(C)c3ccc4c(C)n(C)nc4c3)n2)cc1S(N)(=O)=O [Pazopanib] + Cn1nnc2c(C(N)=O)ncn2c1=O [temozolomide] (first compound 2 µM, partner dose 10 µM)	84.4	44.9	80.1
Cc1ccc(Nc2nccc(N(C)c3ccc4c(C)n(C)nc4c3)n2)cc1S(N)(=O)=O [Pazopanib] + COc1ccc(Cl)c(Nc2nc3ccccc3nc2NS(=O)(=O)c2cccc(NC(=O)C(C)(C)N)c2)c1 [XL147] (first compound 2 µM, partner dose 4 µM)	74.7	72.3	76.5
CC1(C)CCC(c2ccc(Cl)cc2)=C(CN2CCN(c3ccc(C(=O)NS(=O)(=O)c4ccc(N[C@H](CCN5CCOCC5)CSc5ccccc5)c(S(=O)(=O)C(F)(F)F)c4)cc3)CC2)C1 + C[C@@H]1CCN(C(=O)CC#N)C[C@@H]1N(C)c1ncnc2[nH]ccc12 [CP690550] (first compound 2 µM, partner dose 5 µM)	59.7	103	84
CC1(C)CCC(c2ccc(Cl)cc2)=C(CN2CCN(c3ccc(C(=O)NS(=O)(=O)c4ccc(N[C@H](CCN5CCOCC5)CSc5ccccc5)c(S(=O)(=O)C(F)(F)F)c4)cc3)CC2)C1 + Cn1nnc2c(C(N)=O)ncn2c1=O [temozolomide] (first compound 2 µM, partner dose 10 µM)	38.6	32.7	76.1
Cc1ccc(Nc2nccc(N(C)c3ccc4c(C)n(C)nc4c3)n2)cc1S(N)(=O)=O [Pazopanib] + CCCCCCCCc1ccc(CCC(N)(CO)CO)cc1 [fingolimod] (first compound 2 µM, partner dose 10 µM)	7.68	12.9	76.6
Cc1ccc(Nc2nccc(N(C)c3ccc4c(C)n(C)nc4c3)n2)cc1S(N)(=O)=O [Pazopanib] + COc1ccc(C2=N[C@@H](c3ccc(Cl)cc3)[C@@H](c3ccc(Cl)cc3)N2C(=O)N2CCNC(=O)C2)c(OC(C)C)c1 [Nutlin-3] (first compound 2 µM, partner dose 0.5 µM)	63.9	88.5	64.3
Cc1ccc(Nc2nccc(N(C)c3ccc4c(C)n(C)nc4c3)n2)cc1S(N)(=O)=O [Pazopanib] + O=C(Nc1cccc(Cl)c1)Nc1ncc(CCNc2ncnc3ccsc23)s1 [SNS314] (first compound 2 µM, partner dose 0.004 µM)	61.8	82.7	90.1
Cc1ccc(Nc2nccc(N(C)c3ccc4c(C)n(C)nc4c3)n2)cc1S(N)(=O)=O [Pazopanib] + CN(NC(=O)CC(=O)NN(C)C(=S)c1ccccc1)C(=S)c1ccccc1 [STA4783] (first compound 2 µM, partner dose 0.03 µM)	65.3	12	111
Cc1ccc(Nc2nccc(N(C)c3ccc4c(C)n(C)nc4c3)n2)cc1S(N)(=O)=O [Pazopanib] + NC1(c2ccc(-c3nc4ccn5c(=O)[nH]nc5c4cc3-c3ccccc3)cc2)CCC1 [MK2206] (first compound 2 µM, partner dose 2 µM)	90.3	94.9	102
O=C(/C=C/c1cccnc1)NCCCCC1CCN(C(=O)c2ccccc2)CC1 + CCN(CC)CCCCNc1ncc2cc(-c3cc(OC)cc(OC)c3)c(NC(=O)NC(C)(C)C)nc2n1 [PD173074] (first compound 0.05 µM, partner dose 0.5 µM)	75.7	86.8	126
O=C(/C=C/c1cccnc1)NCCCCC1CCN(C(=O)c2ccccc2)CC1 + Nc1nc(F)nc2c1ncn2[C@@H]1O[C@H](CO)[C@@H](O)[C@@H]1O [fludarabine] (first compound 0.05 µM, partner dose 1 µM)	97.4	98.5	56.2
